Among the data in patent US20180015075A1, “METHODS AND COMPOSITIONS FOR TREATMENT OF VENOUS MALFORMATION” (Children's Hospital Medical Center, priority 2016, published 2018) are inhibition values, retold here.

This assay relates to HUVEC (non-transfected). The assay can be described thus: cells. To be noted: Homo sapiens, read-out: Average proliferation Inhibition rate (%) HUVEC.

As for `Oc1ncc(N(CCCl)CCCl)c(O)n1` [Uracil mustard], the inhibition at 20 µM was found to be 18.8%.
